Test results published in the supplement of paper PMC10369915.
The other results are listed elsewhere or left out. Cut-off read from the data, not from the text of the source: active = 3.2 or more and inactive = the rest. Only a few entries rise above the background.

Each binder was assayed against SHP2 C-SH2 domain E139D (assay: enrichment score (SH2-bound / input frequency) (ratio); bacterial display of known human phosphotyrosine sites (pTyr-Var adds point mutants) read by sequencing; higher = stronger binding; tyrosines were phosphorylated by kinases first). Conditions: peptide library: pTyr-Var.
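Note: displayed peptides selected on beads carrying the immobilized SH2 domain, with library peptides lacking any tyrosine serving as negative controls.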

Enrichment score, inactive:
WKKEIYEESST [MOCS2_Y170] 0.921, QVMDGYPIPIG [MMP14_Y353_M355I] 0.764, TEIGQYGNGLK [MORC2_Y100_Q96E] 0.772, EVVGRYSLHNA [MLH1_Y183_V185L] 0.665, HLWRIYYDITD [MMP27_Y307] 1.68, KLNNEHLELNY [MME_Y497_Y497H] 0.776, TEQDPYNNIDR [MMUT_Y364_V368D] 0.6, KASVDYIRKLQ [MITF_Y360] 0.688, EVVGRYSVHNA [MLH1_Y183] 0.738, FEGHSYSACTT [MMP9_Y241_R239H] 0.875, RDMNAYIRPSP [MMAA_Y207] 0.82, PFWKLYESVKK [MKI67_Y241] 1.72, RDMNAYISPSP [MMAA_Y207_R209S] 0.608, TEQDPYNNIVH [MMUT_Y364_R369H] 0.509, EVVGRYSVHYA [MLH1_Y183_N187Y] 0.877, EGWQVYRLGAR [MISP_Y95] 0.668, KERNQYGGVMV [MMP21_Y347_E349G] 0.707, TEQDPYNNIVC [MMUT_Y364_R369C] 0.693

The binders below were run against SHP2 C-SH2 domain wild-type in the same assay as above. Conditions: peptide library: pTyr-Var.

Enrichment score, inactive:
WKKEIYEESST [MOCS2_Y170] 0.778, QVMDGYPIPIG [MMP14_Y353_M355I] 0.721, TEIGQYGNGLK [MORC2_Y100_Q96E] 0.735, EVVGRYSLHNA [MLH1_Y183_V185L] 0.573, HLWRIYYDITD [MMP27_Y307] 1.87, KLNNEHLELNY [MME_Y497_Y497H] 0.694, TEQDPYNNIDR [MMUT_Y364_V368D] 0.467, KASVDYIRKLQ [MITF_Y360] 0.621, EVVGRYSVHNA [MLH1_Y183] 0.743, FEGHSYSACTT [MMP9_Y241_R239H] 0.959, RDMNAYIRPSP [MMAA_Y207] 0.987, PFWKLYESVKK [MKI67_Y241] 1.39, RDMNAYISPSP [MMAA_Y207_R209S] 0.675, TEQDPYNNIVH [MMUT_Y364_R369H] 0.552, EVVGRYSVHYA [MLH1_Y183_N187Y] 1, EGWQVYRLGAR [MISP_Y95] 0.703, KERNQYGGVMV [MMP21_Y347_E349G] 0.611, TEQDPYNNIVC [MMUT_Y364_R369C] 0.616

These binders were tested against SHP2 N-SH2 domain L43F in the same assay as above. Conditions: peptide library: pTyr-Var.

Enrichment score, inactive:
WKKEIYEESST [MOCS2_Y170] 0.877, QVMDGYPIPIG [MMP14_Y353_M355I] 0.765, TEIGQYGNGLK [MORC2_Y100_Q96E] 0.64, EVVGRYSLHNA [MLH1_Y183_V185L] 0.686, HLWRIYYDITD [MMP27_Y307] 1.73, KLNNEHLELNY [MME_Y497_Y497H] 0.747, TEQDPYNNIDR [MMUT_Y364_V368D] 0.551, KASVDYIRKLQ [MITF_Y360] 0.652, EVVGRYSVHNA [MLH1_Y183] 0.808, FEGHSYSACTT [MMP9_Y241_R239H] 0.674, RDMNAYIRPSP [MMAA_Y207] 0.907, PFWKLYESVKK [MKI67_Y241] 1.6, RDMNAYISPSP [MMAA_Y207_R209S] 0.546, TEQDPYNNIVH [MMUT_Y364_R369H] 0.473, EVVGRYSVHYA [MLH1_Y183_N187Y] 0.962, EGWQVYRLGAR [MISP_Y95] 0.6, KERNQYGGVMV [MMP21_Y347_E349G] 0.602, TEQDPYNNIVC [MMUT_Y364_R369C] 0.565

These binders were tested against SHP2 N-SH2 domain T42A in the same assay as above. Conditions: peptide library: pTyr-Var.

Enrichment score, inactive:
WKKEIYEESST [MOCS2_Y170] 0.79, QVMDGYPIPIG [MMP14_Y353_M355I] 0.72, TEIGQYGNGLK [MORC2_Y100_Q96E] 0.517, EVVGRYSLHNA [MLH1_Y183_V185L] 0.558, HLWRIYYDITD [MMP27_Y307] 1.66, KLNNEHLELNY [MME_Y497_Y497H] 0.655, TEQDPYNNIDR [MMUT_Y364_V368D] 0.423, KASVDYIRKLQ [MITF_Y360] 0.51, EVVGRYSVHNA [MLH1_Y183] 0.713, FEGHSYSACTT [MMP9_Y241_R239H] 0.788, RDMNAYIRPSP [MMAA_Y207] 0.721, PFWKLYESVKK [MKI67_Y241] 1.51, RDMNAYISPSP [MMAA_Y207_R209S] 0.552, TEQDPYNNIVH [MMUT_Y364_R369H] 0.408, EVVGRYSVHYA [MLH1_Y183_N187Y] 0.898, EGWQVYRLGAR [MISP_Y95] 0.617, KERNQYGGVMV [MMP21_Y347_E349G] 0.544, TEQDPYNNIVC [MMUT_Y364_R369C] 0.638

These binders were tested against SHP2 N-SH2 domain T52S in the same assay as above. Conditions: peptide library: pTyr-Var.

Enrichment score, inactive:
WKKEIYEESST [MOCS2_Y170] 1.01, QVMDGYPIPIG [MMP14_Y353_M355I] 0.798, TEIGQYGNGLK [MORC2_Y100_Q96E] 0.733, EVVGRYSLHNA [MLH1_Y183_V185L] 0.619, HLWRIYYDITD [MMP27_Y307] 1.83, KLNNEHLELNY [MME_Y497_Y497H] 0.643, TEQDPYNNIDR [MMUT_Y364_V368D] 0.581, KASVDYIRKLQ [MITF_Y360] 0.672, EVVGRYSVHNA [MLH1_Y183] 0.711, FEGHSYSACTT [MMP9_Y241_R239H] 0.658, RDMNAYIRPSP [MMAA_Y207] 0.755, PFWKLYESVKK [MKI67_Y241] 1.53, RDMNAYISPSP [MMAA_Y207_R209S] 0.568, TEQDPYNNIVH [MMUT_Y364_R369H] 0.482, EVVGRYSVHYA [MLH1_Y183_N187Y] 1.01, EGWQVYRLGAR [MISP_Y95] 0.487, KERNQYGGVMV [MMP21_Y347_E349G] 0.567, TEQDPYNNIVC [MMUT_Y364_R369C] 0.61

The binders below were run against SHP2 N-SH2 domain wild-type in the same assay as above. Conditions: peptide library: pTyr-Var.

Enrichment score, inactive:
WKKEIYEESST [MOCS2_Y170] 0.802, QVMDGYPIPIG [MMP14_Y353_M355I] 0.823, TEIGQYGNGLK [MORC2_Y100_Q96E] 0.72, EVVGRYSLHNA [MLH1_Y183_V185L] 0.713, HLWRIYYDITD [MMP27_Y307] 2.03, KLNNEHLELNY [MME_Y497_Y497H] 0.855, TEQDPYNNIDR [MMUT_Y364_V368D] 0.511, KASVDYIRKLQ [MITF_Y360] 0.692, EVVGRYSVHNA [MLH1_Y183] 0.893, FEGHSYSACTT [MMP9_Y241_R239H] 1.11, RDMNAYIRPSP [MMAA_Y207] 1.02, PFWKLYESVKK [MKI67_Y241] 1.83, RDMNAYISPSP [MMAA_Y207_R209S] 0.548, TEQDPYNNIVH [MMUT_Y364_R369H] 0.648, EVVGRYSVHYA [MLH1_Y183_N187Y] 0.838, EGWQVYRLGAR [MISP_Y95] 0.86, KERNQYGGVMV [MMP21_Y347_E349G] 0.619, TEQDPYNNIVC [MMUT_Y364_R369C] 0.655
